{"source": "PubChem BioAssay AID1508623", "about": "(National Center for Advancing Translational Sciences (NCATS), 2021)", "note": "Hit rate of the full screen: of about 48,000 compounds, about 450 (0.94%) were called active. Inconclusive means that the source gave no clear call. Such entries were picked first, then a sample of the others. Calls follow the shape of the dose curve; as a rule, active = well fitted inhibition curve with a large enough effect; inconclusive = small, poorly fitted or top-dose-only effect; inactive = no such curve, though single readings can be large or run the other way. A potency beside an inconclusive call is a rough fit, not a confirmed value. Potency is read from the fitted curve at half-maximal effect; tags tell the direction and shape of the fitted curve."}
{"assay": "Primary qHTS for Identification of Small Molecule Inhibitors of Huntingtin Promoter Activity; also: nearly all actives have a fitted effect of over 50% in size", "conditions": "HEK293 HTT promoter firefly luciferase reporter (activity 0% = vehicle and -100% = no light), 24 h; series mostly up to 57.5 µM", "summary_of_the_method": "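HEK293 cells carrying firefly luciferase reporters were seeded at 2,500 per well in Opti-MEM and cultured for 24 h. They were then treated with compounds at up to 57.5 uM final for 24 h at 37 degrees C before Dual-Glo luminescence readout.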"}
{"compound": "COc1ccc(-c2cc(=O)c3c(O)cc(O)cc3o2)cc1O", "Potency": "inactive"}
{"compound": "COC(=O)c1c(-c2cccs2)csc1NC(=O)COc1c(C)ccc(C)c1C", "Potency": "inconclusive: 17.8 µM [inhibitor, single point]"}
{"compound": "CCCCCSc1nc2sc3c(c2c(=O)n1-c1ccccc1)CCN(C(C)=O)C3", "Potency": "inconclusive: 39.8 µM [inhibitor, partial curve, poor fit]"}
{"compound": "Cc1ccc(Cn2c(SCc3ccc(C(=O)N4CCCCCC4)cc3)nc3ccncc32)cc1", "Potency": "active: 31.6 µM"}
{"compound": "COc1ccc(CN2CCc3nc(SCC(=O)Nc4cc(C)cc(C)c4)[nH]c(=O)c3C2)cc1", "Potency": "inconclusive: 35.5 µM [inhibitor, single point]"}
{"compound": "Nc1nc(Cl)nc2c1ncn2[C@@H]1O[C@H](CO)[C@@H](O)[C@@H]1F", "Potency": "inconclusive: 3.16 µM [inhibitor, full curve, poor fit]"}
{"compound": "COc1ccc(-c2noc(CSc3nnc(C)n3-c3ccc(OC)cc3)n2)cc1", "Potency": "inconclusive: 31.6 µM [inhibitor, single point]"}
{"compound": "CCCCOC(=O)c1ccc(NC(=O)Cn2nnc3sc4c(c3c2=O)CCCC4)cc1", "Potency": "inconclusive: 39.8 µM [inhibitor, single point]"}
{"compound": "O=C(NCc1cccs1)c1ccc(Cn2c(SCc3cccc(F)c3)nc3cccnc32)cc1", "Potency": "inconclusive: 35.5 µM [inhibitor, single point]"}
{"compound": "Cc1ccc(N2C(=O)N(CC(=O)C(C)(C)C)c3ccccc3S2(=O)=O)cc1C", "Potency": "inconclusive: 35.5 µM [inhibitor, partial curve, poor fit]"}
{"compound": "CCOc1ccc(-c2cc(C(=O)N3CCN(S(=O)(=O)c4cc(Cl)ccc4OC)CC3)[nH]n2)cc1", "Potency": "inconclusive: 25.1 µM [inhibitor, single point]"}
{"compound": "Cc1ccc(C)c(N2CCN(C(=O)Cn3ncc4ccsc4c3=O)CC2)c1", "Potency": "inconclusive: 17.8 µM [inhibitor, partial curve, poor fit]"}
{"compound": "Cc1cc2oc(C(=O)N(Cc3ccccc3F)C3CCS(=O)(=O)C3)c(C)c2cc1Cl", "note": "(stereo not given)", "Potency": "inconclusive: 28.2 µM [inhibitor, single point]"}
{"compound": "Cc1ccc(C2CC(=O)Nc3cc4c(cc32)OCCO4)cc1", "note": "(stereo not given)", "Potency": "inconclusive: 31.6 µM [inhibitor, partial curve, poor fit]"}
{"compound": "CC1=C(C(=O)OCC2CCCCC2)C(c2cccc(Cl)c2Cl)CC(=O)N1", "note": "(stereo not given)", "Potency": "inactive"}
{"compound": "CCOc1ccc(C(=O)c2oc3ccccc3c2NC(=O)Cc2coc3cc(C)cc(C)c23)cc1", "Potency": "inactive"}
{"compound": "Cc1ccc(CNCc2ccccc2)s1", "Potency": "inactive"}
{"compound": "COc1ccc(CCNc2nccn(-c3ccc(C)c(C)c3)c2=O)cc1OC", "Potency": "inconclusive: 28.2 µM [inhibitor, partial curve, poor fit]"}
{"compound": "COc1ccc(N2CCN(C(CNC(=O)C(=O)NCCc3ccccc3)c3cccnc3)CC2)cc1", "note": "(stereo not given)", "Potency": "inconclusive: 25.1 µM [inhibitor, partial curve, poor fit]"}
{"compound": "Cc1ccc(CN2CCC(CNC(=O)Nc3cccc(Cl)c3C)C2)cc1", "note": "(stereo not given)", "Potency": "inactive"}
{"compound": "COc1ccc(C)cc1NC(=O)CSc1nc2ccccc2nc1N1CCOCC1", "Potency": "inconclusive: 39.8 µM [inhibitor, single point]"}
{"compound": "COc1cc(OC)cc(-c2nc(-c3cccc(C)c3)no2)c1", "Potency": "inactive"}
{"compound": "CC(C)c1ccc(NC(=O)c2ccc(F)c(S(=O)(=O)N3CCCCCC3)c2)cc1", "Potency": "inconclusive: 2 µM [inhibitor, full curve, poor fit]"}
{"compound": "O=C1CCSc2ccc(S(=O)(=O)Nc3ccc(Cl)c(C(F)(F)F)c3)cc2N1", "Potency": "inactive"}
{"compound": "CCc1ccccc1NC(=O)c1ccc2c(c1)CCN2S(C)(=O)=O", "Potency": "inactive"}
{"compound": "COc1ccc(Cc2nc3ccc(C(=O)NCc4ccc(OC)cc4OC)cc3o2)cc1", "Potency": "inconclusive: 25.1 µM [inhibitor, partial curve, poor fit]"}
{"compound": "Cc1noc(C)c1S(=O)(=O)N1CCC(C(=O)Nc2ccc(Br)cc2)CC1", "Potency": "inactive"}
{"compound": "CC(=O)c1ccc(Oc2nc(C)nc3c2oc2ccccc23)cc1", "Potency": "inconclusive: 15.8 µM [inhibitor, partial curve, poor fit]"}
{"compound": "CN(C)Cc1c(C(=O)NCCOc2ccc(C(=O)NO)cc2)oc2ccccc12", "Potency": "inactive"}
{"compound": "CC1(C)CC(=O)c2c(C(F)(F)F)nn(-c3ccc(C(N)=O)c(NC4CCC(OC(=O)CN)CC4)c3)c2C1", "note": "(stereo not given)", "Potency": "inconclusive: 0.769 µM [inhibitor, full curve]"}
{"compound": "Nc1c(C(=O)c2ccc(F)cc2)sc(Nc2ccccc2F)c1S(=O)(=O)c1ccc(Br)cc1", "Potency": "inconclusive: 10 µM [inhibitor, partial curve, poor fit]"}
{"compound": "Cc1ccc(NC(=O)Cn2c(=O)n(-c3ccccc3)c(=O)c3ccc(C(=O)NCc4ccc5c(c4)OCO5)cc32)c(C)c1", "Potency": "inconclusive: 39.8 µM [inhibitor, single point]"}
{"compound": "CCOC(=O)c1cccc(NC(=O)c2ccc3nc(Cc4ccccc4)oc3c2)c1", "Potency": "inconclusive: 25.1 µM [inhibitor, single point]"}
{"compound": "Cc1cc2ccccc2n1-c1ccc(C(=O)N2CCC(C(=O)NCc3ccccc3Cl)CC2)s1", "Potency": "inconclusive: 22.4 µM [inhibitor, partial curve, poor fit]"}
{"compound": "CC(CNC(=O)Cc1ccc(NC(=O)N2CCSc3ncccc32)cc1)c1ccccc1", "note": "(stereo not given)", "Potency": "inconclusive: 14.1 µM [inhibitor, partial curve, poor fit]"}
{"compound": "Cc1ccccc1NCc1cccn1-c1nnc(N2CCC(C)CC2)s1", "Potency": "inactive"}
{"compound": "Cc1ccc(CNC(=O)C2CCN(S(=O)(=O)c3cc(-c4noc(C)n4)ccc3C)CC2)cc1", "Potency": "inconclusive: 3.16 µM [inhibitor, full curve]"}
{"compound": "CCOc1ccc(CCNC(=O)c2cc3c(s2)-c2ccccc2OC3)cc1OCC", "Potency": "inconclusive: 39.8 µM [inhibitor, single point]"}
{"compound": "CCc1cccc(C)c1NC(=O)Cn1cc2c(n1)CCCCC2", "Potency": "inconclusive: 20 µM [inhibitor, single point]"}
{"compound": "CCc1nn(CCCC(=O)NCc2cc(Br)ccc2OC)c(=O)c2cc3occc3n12", "Potency": "inconclusive: 39.8 µM [inhibitor, single point]"}
